The other results are listed elsewhere or left out.

These results are taken from paper PMC7819943, “Rice protein-binding microarrays: a tool to detect cis-acting elements near promoter regions in rice”.

This assay has as its target T1, OsWOX13 (Oryza sativa, UniProt Q5QMM3 1-267).
T1 sequence: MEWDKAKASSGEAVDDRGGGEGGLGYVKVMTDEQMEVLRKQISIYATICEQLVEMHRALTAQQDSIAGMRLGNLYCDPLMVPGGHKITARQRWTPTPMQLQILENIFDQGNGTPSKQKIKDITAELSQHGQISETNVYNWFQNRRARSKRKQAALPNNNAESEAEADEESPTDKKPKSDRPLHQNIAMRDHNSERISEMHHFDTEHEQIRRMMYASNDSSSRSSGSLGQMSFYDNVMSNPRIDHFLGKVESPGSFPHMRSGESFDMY
The assay can be described thus: protein-binding microarray (RPBM); PBS, 2% BSA, 51.3 ng/ul salmon testes DNA, 50 uM zinc acetate, 200 nM TF, 25 C, 1 h; high values mean tight binding. Conditions: protein: recombinant; tags: N-terminal polyhistidine and DsRed monomer fusion (pET32a); label: CyDye5-dUTP incorporated in the synthesized complementary strand; 3' TTTTT single-stranded linker to array surface; dsDNA, one strand shown. In a few lines: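 The binding signal is fluorescence intensity per array feature (arbitrary units). Readings came from an Axon 4000B scanner after a washed, 2% BSA-blocked, double-stranded custom Agilent array had been incubated for 1 h at 25 °C with 200 nM protein and 50 µM zinc acetate. The protein was a Ni–NTA-purified transcription factor fused N-terminally to polyhistidine and DsRed, expressed in E. coli BL21-CodonPlus.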
For the sequence “GTGATTAATAGGTATCAGAAAAGAGCAGCCAAATTTGCACCGGAGTCACCTAGTGCAG”, the binding signal was 19200 fluorescence intensity (a.u.).

With “CCAAATTAACATGTAGTAGTAGACCGGCTTCGCCCTCGCCCGGAGTCACCTAGTGCAG”, the binding signal is 33900 fluorescence intensity (a.u.). Regarding “ATTAATTAATAATTACAAGCTGATCCACGTCGCCGGCCTACGGAGTCACCTAGTGCAG”, the binding signal is 42000 fluorescence intensity (a.u.). Take “TCACGCTTACTCGAGTCATCAATCATCTACTACACCCCACCGGAGTCACCTAGTGCAG”: the binding signal was 5350 fluorescence intensity (a.u.). On to “ATTAATCTATAATTAGAGAATGTTTACTATAGCATCACATCGGAGTCACCTAGTGCAG”, for which the binding signal is 23500 fluorescence intensity (a.u.). Next, “TAACAATCATTTGAACCATACGCTATTTCGCTGCTGTATGCGGAGTCACCTAGTGCAG”: 3930 fluorescence intensity (a.u.); “TGCAGAGATTGAATAATTTGATGTTCCATATTGTAACTACCGGAGTCACCTAGTGCAG”: 35200 fluorescence intensity (a.u.); “GCGAAATTACAATGAAATCCTCCCACCTCAGAAACTGATCCGGAGTCACCTAGTGCAG”: 3830 fluorescence intensity (a.u.).

“CCCACCTAATTTCCTTCTGTTTCAAGAAACATTATGGTCACGGAGTCACCTAGTGCAG”: the binding signal was 6230 fluorescence intensity (a.u.). The same measure for “AACATAATTAGGCTCAAAAGATTCGTCTCACAATTTACATCGGAGTCACCTAGTGCAG”: 11700 fluorescence intensity (a.u.); for “ACATTAATGATTAGAGACCATATTGTCATCAACTATTGTACGGAGTCACCTAGTGCAG”: 30800 fluorescence intensity (a.u.). On to “GGCGTAATTAGGCTTAAAAGATTCGTCAGGCAATTTACCCCGGAGTCACCTAGTGCAG”, for which the binding signal was 24600 fluorescence intensity (a.u.). Next, “GAATTGGATTGAGAATTCTTCTCTTCTCTCCTTTTCCGACCGGAGTCACCTAGTGCAG”: 9270 fluorescence intensity (a.u.); “AGGGATTTGTCCATGATTGTATACAACAGACTCTGTTTACCGGAGTCACCTAGTGCAG”: 11600 fluorescence intensity (a.u.); “CTCTTAAATTTACGCTGTGGCTGATACTCCCTCTGTCCCGCGGAGTCACCTAGTGCAG”: 5940 fluorescence intensity (a.u.).

For “CTTAACAAGTACTAAAATTACTAATTGTCTAGTGGCCATTCGGAGTCACCTAGTGCAG”, the binding signal is 12300 fluorescence intensity (a.u.). As for “AGAGTTAGCCAATCATAGTGAAGAAAGCAAACCCTGATGACGGAGTCACCTAGTGCAG”, the binding signal was 3730 fluorescence intensity (a.u.). The same measure for “TTTTAATTTTACTATAATAAATATACTAGGCTACTAGACTCGGAGTCACCTAGTGCAG”: 10800 fluorescence intensity (a.u.). As for “CTAAACTAAACAGAGAGGGGTGAGTATCCTCTTCCATGCGCGGAGTCACCTAGTGCAG”, the binding signal was 11300 fluorescence intensity (a.u.). As for “ATCTTCATTTCTTAAATTTGTGGATAAATCAGATTTTGGACGGAGTCACCTAGTGCAG”, the binding signal is 4150 fluorescence intensity (a.u.). With “CGTGAACCGTGATTACTGCTCAGTTACCAAGGAAAACGGTCGGAGTCACCTAGTGCAG”, the binding signal is 8990 fluorescence intensity (a.u.).

For the sequence “TAGAGATTGTAGTTAGACTGAGTACTCAGTTTGTGATTTTCGGAGTCACCTAGTGCAG”, the binding signal is 4280 fluorescence intensity (a.u.).

Regarding “TCAAATTGACCTAGACAATGGACCAATTGAAGGTGGTCCACGGAGTCACCTAGTGCAG”, the binding signal was 21500 fluorescence intensity (a.u.).

For “ATGTCAAATGGGCCAAATTGAGTGGTTATATGGGCTGTGACGGAGTCACCTAGTGCAG”, the binding signal is 3540 fluorescence intensity (a.u.). The same measure for “CTAATATATTGACGTGTAATTCTTTTGTGTGTTTGTGAAACGGAGTCACCTAGTGCAG”: 15200 fluorescence intensity (a.u.); for “TATGATTTGTTTTCTTCCTTACCAAAACAAATATTGTAATCGGAGTCACCTAGTGCAG”: 12900 fluorescence intensity (a.u.). Consider “CGTTTAAATTTATTGAGCATGTAGGTTTTACCAACACAGACGGAGTCACCTAGTGCAG”, for which the binding signal is 7250 fluorescence intensity (a.u.). For the sequence “AATCGTTCATAATTTGATGTTAATCAGTTTTCTTATCAATCGGAGTCACCTAGTGCAG”, the binding signal was 7670 fluorescence intensity (a.u.). With “GATGATGGACGAACACCTGGCAAACAAAGGTGTTGAGCAACGGAGTCACCTAGTGCAG”, the binding signal was 4250 fluorescence intensity (a.u.).

On to “GATGGTGATTATGATTCACAATTTAAGTCTGAGCAAGCCTCGGAGTCACCTAGTGCAG”, for which the binding signal is 19900 fluorescence intensity (a.u.).

Consider “CTAATTACTATCCATCATGTTTCTGTGGACGCGCGGCTCACGGAGTCACCTAGTGCAG”, for which the binding signal was 9700 fluorescence intensity (a.u.).

With “TATTATACAAATTACCACATCACATTTATATTCGTACTATCGGAGTCACCTAGTGCAG”, the binding signal is 6570 fluorescence intensity (a.u.). As to “ACTAAACTTTCAAATTTGGTATGAACTAAACGCACCCTTGCGGAGTCACCTAGTGCAG”, the binding signal was 4240 fluorescence intensity (a.u.). The same measure for “CCAAATTAAGCCATTAATTAATAAAACAATATCATTAGGACGGAGTCACCTAGTGCAG”: 28900 fluorescence intensity (a.u.).

For the sequence “TTGTGTTAATTTCCTAATTAGATGCAACTTAATATCCATTCGGAGTCACCTAGTGCAG”, the binding signal is 28100 fluorescence intensity (a.u.). The same measure for “AATGAGACAACTAATTGACTAGCAAATACTCCTAGTAAAGCGGAGTCACCTAGTGCAG”: 34300 fluorescence intensity (a.u.); for “GTAATGATCGATGATGCCATCAATCACATGTGTGCACATGCGGAGTCACCTAGTGCAG”: 11000 fluorescence intensity (a.u.). Take “GTAAGGTGATTTGGAAGGCGATGACGAACAATAGACACAACGGAGTCACCTAGTGCAG”: the binding signal was 3240 fluorescence intensity (a.u.). The same measure for “CAGTTAAATGAATGGAACAGTATTCTGTCACTGAAAGAGACGGAGTCACCTAGTGCAG”: 6490 fluorescence intensity (a.u.); for “TTAATTTATTTCCGATTAATTAAATATCTACTTTACGTTACGGAGTCACCTAGTGCAG”: 10700 fluorescence intensity (a.u.); for “ACCCGGATTAAAACGCAATCATGCATGCGCCACGATCAGACGGAGTCACCTAGTGCAG”: 3890 fluorescence intensity (a.u.).

For “ATAATTAATTAATTAACTAACTACTTTTAGAGGAAAACTACGGAGTCACCTAGTGCAG”, the binding signal is 32100 fluorescence intensity (a.u.).
